# Laboratory results from PubChem BioAssay (NCI).
#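 Each compound was tested at five concentrations against cells in 96-well plates for 48 hours. Here, GI50 denotes the concentration required for 50% inhibition of growth. TGI: concentration producing complete growth inhibition.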 Peptide text beside a SMILES is read from it. * marks the point of attachment. Boc = CC(C)(C)OC(=O)*
# Tested on: NCI-H322M lung
# Test: NCI tumour cell line growth inhibition, 48 h
Structure (SMILES),TGI,GI50
CCOC(=O)CNC1C(NC(C)=O)C(OC)OC2COC(c3ccccc3)OC21 (stereo not given),> 100 µM,–
COc1cc2ccc(/C(C)=N/OC(C)=O)cc2cc1OC,> 100 µM,–
CC1=C(C(=O)NCC(C)O)CC(C(=O)NCC(C)O)=C(C)N1 (stereo not given),> 100 µM,–
O=C(O)CN(c1ccccc1)S(=O)(=O)c1ccc(Cl)cc1,> 100 µM,–
O=C1OC(C2OC(=O)c3cc(O)c(O)c(O)c3-c3c(O)c(O)c4oc(=O)c5c(c(O)c(O)c6oc(=O)c3c4c65)-c3c(cc(O)c(O)c3O)C(=O)OCC2O)C2OC(=O)c3c(c(O)c(O)c(O)c3[C@H]2O)-c2c1cc(O)c(O)c2O (stereo not given in full),> 100 µM,–
NCCCc1c(-c2ccccc2)nc(N)[nH]c1=O,> 100 µM,–
CC12CC3(O)OC(O1)C1(COC(=O)c4ccccc4)C3CC21OC1OC(CO)C(O)C(O)C1O (stereo not given),> 100 µM,–
CNC(=O)c1cncc(/C=C/c2c(C)cccc2C)c1,> 25 µM,> 25000 nM
C=C1SC(=Nc2ccccc2Cl)N(C(=O)c2sc3ccccc3c2Cl)C1(C)C,> 47.4 µM,2210 nM
CC(=O)c1c(-c2ccccc2)c(-c2ccc(OCCN(C)C)cc2)n2ccccc12,30 µM,–
COc1cc(/C=C/C(=O)N[C@@H]2C(=O)N3[C@@H]2SC(C)(C)[C@@H]3C(=O)O)cc(OC)c1OC,> 100 µM,–
CCOCC(NC(=O)C(CC(C)C)NC(=O)OC(C)(C)C)C(N)=O (stereo not drawn) (Boc-Leu-Ser(Et)-NH2; configuration not given here),> 100 µM,–
CCn1cc(C(=O)N/N=C/c2cccc(F)c2)c(=O)c2cc(F)c(N3CCNC(C)C3)c(F)c21 (stereo not given),3.09 µM,1700 nM
C#Cc1cccc(Nc2ncnc3ccc(-c4cnc(Cl)c(NS(C)(=O)=O)c4)cc23)c1,1.95 µM,367 nM
Nc1nc(N)c2nnn(C[C@H]3CC[C@@H](CO)C3)c2n1,> 100 µM,–
O=C(CCc1ccccc1CO)NCCc1ccccc1,> 100 µM,–
C[C@]12CC(C#N)C(=O)C(O)=C1CC[C@@H]1C2CC[C@@]2(C)C1CC[C@@H]2O (stereo not given in full),> 100 µM,–
CC(C)c1cccc(C(C)C)c1N=C(N)C#N,> 100 µM,–
CN(C)CCNC(=O)c1ccc(NCCCN(C)CCCNc2ccc(C(=O)NCCN(C)C)c3[nH]c4ccc([N+](=O)[O-])cc4c(=O)c23)c2c(=O)c3cc([N+](=O)[O-])ccc3[nH]c12,1.16 µM,–
COC1OC(CBr)C(OC(c2ccccc2)(c2ccccc2)c2ccccc2)C(OC(c2ccccc2)(c2ccccc2)c2ccccc2)C1OC(c1ccccc1)(c1ccccc1)c1ccccc1 (stereo not given),> 100 µM,–
Cc1ccc([N+](=O)[O-])cc1S(=O)(=O)Nc1ccc(C2=NNC(c3cccs3)C2)cc1 (stereo not given),> 100 µM,–
